# This is one part of the list. No stated cut-off is given here; in the data, active = 3.2 or more and inactive = the rest. Only a few entries rise above the background.
# B1: SLC20A2_Y187_P184L (peptide)
# chain: ALLVFYAATIA
# B2: SLC20A2_Y377_R382Q (peptide)
# chain: AQESNYRLLRQ
# B3: SLC20A2_Y386_R382Q (peptide)
# chain: RQNNSYTCYTA
# B4: SLC20A2_Y433 (peptide)
# chain: LRYDSYSSYCN
# B5: SLC20A2_Y433_S434W (peptide)
# chain: LRYDSYWSYCN
# B6: SLC20A2_Y433_S434W_YF (peptide)
# chain: LRFDSYWSFCN
# B7: SLC20A2_Y436_YF (peptide)
# chain: DSFSSYCNAVA
# B8: SLC22A14_Y291 (peptide)
# chain: LTGIAYSLPHW
# B9: SLC22A14_Y291_S292G (peptide)
# chain: LTGIAYGLPHW
# B10: SLC22A5_Y486_R488C (peptide)
# chain: VYLGAYDCFLP
# B11: SLC22A5_Y486_R488C_YF (peptide)
# chain: VFLGAYDCFLP
# B12: SLC22A5_Y486_YF (peptide)
# chain: VFLGAYDRFLP
# B13: SLC25A1_Y297 (peptide)
# chain: IVFVIYDEVVK
# B14: SLC25A1_Y297_Y297C (peptide)
# chain: IVFVICDEVVK
# B15: SLC25A32_Y152 (peptide)
# chain: RLMLQYDAVVN
# B16: SLC25A32_Y152_R147H (peptide)
# chain: HLMLQYDAVVN
# B17: SLC25A4_Y112_A114P (peptide)
# chain: KQFWRYFPGNL
# B18: SLC25A4_Y187_R188K (peptide)
# chain: QGIIIYKAAYF
# B19: SLC25A4_Y187_R188K_YF (peptide)
# chain: QGIIIYKAAFF
# Biological target: SHP2 C-SH2 domain E139D
# Assay: enrichment score (SH2-bound / input frequency) (ratio); bacterial display of known human phosphotyrosine sites (pTyr-Var adds point mutants) read by sequencing; higher = stronger binding; tyrosines were phosphorylated by kinases first
# Settings: peptide library: pTyr-Var
# 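Further: displayed peptides selected on beads carrying the immobilized SH2 domain, with library peptides lacking any tyrosine serving as negative controls.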
row,Binder,enrichment score
1,B1,inactive: 1.54
2,B2,inactive: 0.793
3,B3,inactive: 0.574
4,B4,inactive: 0.897
5,B5,inactive: 2.37
6,B6,inactive: 1.38
7,B7,inactive: 1.09
8,B8,inactive: 1.26
9,B9,inactive: 0.931
10,B10,inactive: 1.44
11,B11,inactive: 1.67
12,B12,inactive: 1.27
13,B13,active: 3.84
14,B14,inactive: 2.15
15,B15,inactive: 0.904
16,B16,inactive: 1.6
17,B17,inactive: 2.32
18,B18,inactive: 0.856
19,B19,inactive: 0.523

# Biological target: SHP2 C-SH2 domain wild-type
# Assay: as above
# Settings: peptide library: pTyr-Var
row,Binder,enrichment score
1,B1,inactive: 1.89
2,B2,inactive: 1.06
3,B3,inactive: 1.4
4,B4,inactive: 1.02
5,B5,inactive: 2.37
6,B6,inactive: 1.55
7,B7,inactive: 1
8,B8,inactive: 3.03
9,B9,inactive: 0.987
10,B10,inactive: 1.53
11,B11,inactive: 1.36
12,B12,inactive: 1.59
13,B13,inactive: 3
14,B14,inactive: 1.94
15,B15,inactive: 0.977
16,B16,inactive: 1.5
17,B17,inactive: 2.27
18,B18,inactive: 1.41
19,B19,inactive: 0.663

# Biological target: SHP2 N-SH2 domain L43F
# Assay: as above
# Settings: peptide library: pTyr-Var
row,Binder,enrichment score
1,B1,inactive: 1.84
2,B2,inactive: 0.538
3,B3,inactive: 0.674
4,B4,inactive: 0.838
5,B5,inactive: 1.96
6,B6,inactive: 1.4
7,B7,inactive: 0.813
8,B8,active: 7.2
9,B9,inactive: 3.16
10,B10,inactive: 1.46
11,B11,inactive: 1.39
12,B12,inactive: 1
13,B13,active: 3.54
14,B14,inactive: 1.69
15,B15,inactive: 1.08
16,B16,inactive: 1.22
17,B17,inactive: 1.8
18,B18,inactive: 2.25
19,B19,inactive: 0.819

# Biological target: SHP2 N-SH2 domain T42A
# Assay: as above
# Settings: peptide library: pTyr-Var
row,Binder,enrichment score
1,B1,inactive: 1.48
2,B2,inactive: 0.506
3,B3,inactive: 0.805
4,B4,inactive: 0.835
5,B5,inactive: 1.69
6,B6,inactive: 1.28
7,B7,inactive: 0.865
8,B8,active: 11.7
9,B9,active: 3.77
10,B10,inactive: 1.45
11,B11,inactive: 1.35
12,B12,inactive: 1.2
13,B13,active: 3.24
14,B14,inactive: 1.8
15,B15,inactive: 1.01
16,B16,inactive: 1.39
17,B17,inactive: 1.67
18,B18,inactive: 2.69
19,B19,inactive: 1

# Biological target: SHP2 N-SH2 domain T52S
# Assay: as above
# Settings: peptide library: pTyr-Var
row,Binder,enrichment score
1,B1,inactive: 1.77
2,B2,inactive: 0.482
3,B3,inactive: 0.784
4,B4,inactive: 0.78
5,B5,inactive: 2.04
6,B6,inactive: 1.36
7,B7,inactive: 0.949
8,B8,active: 9.62
9,B9,active: 4.1
10,B10,inactive: 1.41
11,B11,inactive: 1.52
12,B12,inactive: 1.24
13,B13,active: 3.67
14,B14,inactive: 1.83
15,B15,inactive: 0.99
16,B16,inactive: 1.09
17,B17,inactive: 1.91
18,B18,inactive: 2.53
19,B19,inactive: 0.633

# Biological target: SHP2 N-SH2 domain wild-type
# Assay: as above
# Settings: peptide library: pTyr-Var
row,Binder,enrichment score
1,B1,inactive: 1.87
2,B2,inactive: 0.94
3,B3,inactive: 1
4,B4,inactive: 1.31
5,B5,inactive: 2.27
6,B6,inactive: 1.7
7,B7,inactive: 0.964
8,B8,inactive: 2.63
9,B9,inactive: 1.68
10,B10,inactive: 1.4
11,B11,inactive: 1.23
12,B12,inactive: 1.23
13,B13,inactive: 2.98
14,B14,inactive: 2.12
15,B15,inactive: 1.11
16,B16,inactive: 1.21
17,B17,inactive: 1.85
18,B18,inactive: 1.46
19,B19,inactive: 0.733
